Measurements as given in publication PMC2808332.
No constants are given. Whether binding was seen depends on the method and setting. Some results given as binding are weak or reduced against the parent protein; the word gives no strength.

The chains behind the UniProt entries cited, without tags or fusion partners. Where a name states a change or a piece, a line headed by the entry shows the natural chain unless it says otherwise. A line that says so, or that is headed by a name, gives the form on record, which may keep a tag or linker. Residues count along the entry.
ADP-ribosylation-like factor 6 interacting protein 4 (NM_016638) (Q66PJ3, form named): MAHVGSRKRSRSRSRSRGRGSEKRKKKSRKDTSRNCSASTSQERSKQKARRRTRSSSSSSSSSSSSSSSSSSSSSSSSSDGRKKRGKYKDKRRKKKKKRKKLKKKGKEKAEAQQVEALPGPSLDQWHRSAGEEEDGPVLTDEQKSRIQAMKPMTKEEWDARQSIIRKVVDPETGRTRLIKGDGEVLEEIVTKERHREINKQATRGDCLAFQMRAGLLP
UniProt Q9UIV1: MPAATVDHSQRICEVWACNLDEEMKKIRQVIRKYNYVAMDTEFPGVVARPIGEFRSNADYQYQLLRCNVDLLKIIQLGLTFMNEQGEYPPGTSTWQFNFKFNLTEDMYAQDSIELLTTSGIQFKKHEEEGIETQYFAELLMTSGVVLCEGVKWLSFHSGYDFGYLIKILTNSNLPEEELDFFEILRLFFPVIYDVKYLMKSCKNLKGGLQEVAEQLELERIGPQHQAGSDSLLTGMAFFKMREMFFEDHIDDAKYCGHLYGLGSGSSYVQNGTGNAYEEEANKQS
UniProt O60674: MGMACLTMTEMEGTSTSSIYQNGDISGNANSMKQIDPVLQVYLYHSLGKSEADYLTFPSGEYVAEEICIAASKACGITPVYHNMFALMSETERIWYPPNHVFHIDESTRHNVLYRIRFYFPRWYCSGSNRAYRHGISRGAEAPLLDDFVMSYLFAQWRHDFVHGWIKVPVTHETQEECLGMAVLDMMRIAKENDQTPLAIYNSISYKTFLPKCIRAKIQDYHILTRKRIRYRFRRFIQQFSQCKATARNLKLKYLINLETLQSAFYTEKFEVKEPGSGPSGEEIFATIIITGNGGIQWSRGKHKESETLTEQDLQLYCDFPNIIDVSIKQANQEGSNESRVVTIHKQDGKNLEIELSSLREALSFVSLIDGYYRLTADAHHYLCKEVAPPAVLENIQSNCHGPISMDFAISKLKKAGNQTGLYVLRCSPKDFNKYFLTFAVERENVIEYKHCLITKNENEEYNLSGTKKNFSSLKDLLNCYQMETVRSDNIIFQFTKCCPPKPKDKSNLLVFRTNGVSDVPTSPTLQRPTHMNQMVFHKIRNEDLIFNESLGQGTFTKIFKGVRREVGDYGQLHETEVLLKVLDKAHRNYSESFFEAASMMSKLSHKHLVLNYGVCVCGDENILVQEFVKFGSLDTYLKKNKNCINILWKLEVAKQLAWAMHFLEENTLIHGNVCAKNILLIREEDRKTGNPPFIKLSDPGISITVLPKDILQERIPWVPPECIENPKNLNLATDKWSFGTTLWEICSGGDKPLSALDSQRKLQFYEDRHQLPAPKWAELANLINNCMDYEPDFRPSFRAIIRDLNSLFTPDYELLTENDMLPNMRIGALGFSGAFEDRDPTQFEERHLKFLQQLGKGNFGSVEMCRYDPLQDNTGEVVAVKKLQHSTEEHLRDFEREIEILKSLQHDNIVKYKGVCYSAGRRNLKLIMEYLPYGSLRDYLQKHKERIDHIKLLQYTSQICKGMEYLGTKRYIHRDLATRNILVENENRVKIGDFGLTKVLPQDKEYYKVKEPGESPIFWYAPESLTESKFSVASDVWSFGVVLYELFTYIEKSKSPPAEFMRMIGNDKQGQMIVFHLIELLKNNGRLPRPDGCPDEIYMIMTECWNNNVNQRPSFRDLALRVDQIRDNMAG
UniProt P52333: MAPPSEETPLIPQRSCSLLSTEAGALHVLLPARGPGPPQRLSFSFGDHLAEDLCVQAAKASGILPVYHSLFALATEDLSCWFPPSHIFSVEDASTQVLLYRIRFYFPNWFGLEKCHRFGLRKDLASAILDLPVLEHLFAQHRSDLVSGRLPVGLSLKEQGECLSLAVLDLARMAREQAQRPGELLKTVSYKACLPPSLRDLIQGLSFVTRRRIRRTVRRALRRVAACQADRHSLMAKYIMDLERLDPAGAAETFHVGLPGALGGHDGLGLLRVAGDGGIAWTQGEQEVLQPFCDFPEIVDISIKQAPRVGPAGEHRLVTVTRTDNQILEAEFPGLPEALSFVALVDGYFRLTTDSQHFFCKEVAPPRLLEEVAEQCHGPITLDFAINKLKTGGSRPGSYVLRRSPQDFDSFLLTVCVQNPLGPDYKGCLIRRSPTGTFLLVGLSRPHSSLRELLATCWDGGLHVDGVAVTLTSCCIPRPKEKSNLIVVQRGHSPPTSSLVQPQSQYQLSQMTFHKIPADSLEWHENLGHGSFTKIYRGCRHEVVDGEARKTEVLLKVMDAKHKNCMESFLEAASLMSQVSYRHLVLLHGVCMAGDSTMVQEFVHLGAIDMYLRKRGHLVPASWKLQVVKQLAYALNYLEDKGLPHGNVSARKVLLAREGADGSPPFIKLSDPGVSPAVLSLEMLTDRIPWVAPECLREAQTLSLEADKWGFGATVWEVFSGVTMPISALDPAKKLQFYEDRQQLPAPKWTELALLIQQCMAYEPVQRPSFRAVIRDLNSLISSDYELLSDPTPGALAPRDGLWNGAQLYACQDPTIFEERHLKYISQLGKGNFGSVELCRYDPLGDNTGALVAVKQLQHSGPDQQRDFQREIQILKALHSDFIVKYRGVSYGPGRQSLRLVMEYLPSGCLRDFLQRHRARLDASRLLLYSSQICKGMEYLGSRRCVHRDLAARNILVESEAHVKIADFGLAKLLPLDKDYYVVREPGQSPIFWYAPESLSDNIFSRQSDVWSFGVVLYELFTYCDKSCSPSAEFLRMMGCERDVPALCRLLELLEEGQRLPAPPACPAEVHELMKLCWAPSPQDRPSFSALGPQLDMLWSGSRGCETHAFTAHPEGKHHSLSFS
UniProt O14893, residues 12-280: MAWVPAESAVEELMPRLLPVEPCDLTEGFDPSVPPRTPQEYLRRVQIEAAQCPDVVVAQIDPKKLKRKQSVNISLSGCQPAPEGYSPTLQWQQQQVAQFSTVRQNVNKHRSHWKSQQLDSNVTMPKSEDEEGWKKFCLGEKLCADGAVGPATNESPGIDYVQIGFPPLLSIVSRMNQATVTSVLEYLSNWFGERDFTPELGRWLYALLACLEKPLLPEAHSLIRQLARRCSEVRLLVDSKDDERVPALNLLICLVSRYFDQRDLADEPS

How the values were obtained:
Test in all cases: peptide or protein array; Invitrogen Protoarray v4.0, about 8,400 human proteins spotted on nitrocellulose-coated glass slides; 10 µg biotinylated tag-free NEMO in 120 µl probing buffer (PBS, 0.5 mM DTT, 5 mM MgCl2, 5% glycerol, 0.05% Triton X-100), 4°C, 1.5 h; bound NEMO detected with labelled streptavidin; hits Z-score > 3, hits of the biotin-GST control array subtracted; both purified
[1] = target: ADP-ribosylation-like factor 6 interacting protein 4 (NM_016638) (human) (UniProt Q66PJ3)
[2] = target: T1, Arginine and glutamate rich 1 (human) (UniProt Q9NWB6)
T1 sequence: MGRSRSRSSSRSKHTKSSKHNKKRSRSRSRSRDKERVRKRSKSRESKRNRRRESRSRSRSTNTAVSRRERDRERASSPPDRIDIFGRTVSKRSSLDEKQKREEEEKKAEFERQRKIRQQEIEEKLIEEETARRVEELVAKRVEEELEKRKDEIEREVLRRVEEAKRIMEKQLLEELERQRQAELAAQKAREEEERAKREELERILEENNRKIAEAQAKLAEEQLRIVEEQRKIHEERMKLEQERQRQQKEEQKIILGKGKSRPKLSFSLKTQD

[3] = target: CCR4-NOT transcription complex, subunit 7 (human) (UniProt Q9UIV1)
Janus kinase 2 (human) = Janus kinase 2 (human) (UniProt O60674)
Janus kinase 3 (human) = Janus kinase 3 (human) (UniProt P52333)
Phosducin-like (human) = target: T2, Phosducin-like (human) (UniProt Q13371)
T2 sequence: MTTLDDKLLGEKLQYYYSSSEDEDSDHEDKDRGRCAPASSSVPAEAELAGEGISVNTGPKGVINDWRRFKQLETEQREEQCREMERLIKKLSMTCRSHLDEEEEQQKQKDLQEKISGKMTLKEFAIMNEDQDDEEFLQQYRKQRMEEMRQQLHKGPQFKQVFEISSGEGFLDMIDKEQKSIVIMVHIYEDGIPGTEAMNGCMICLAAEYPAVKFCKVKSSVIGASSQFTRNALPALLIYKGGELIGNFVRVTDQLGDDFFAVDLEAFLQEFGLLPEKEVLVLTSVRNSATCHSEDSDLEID

Septin 9 (human) = target: T3, Septin 9 (human) (UniProt Q9UHD8)
T3 sequence: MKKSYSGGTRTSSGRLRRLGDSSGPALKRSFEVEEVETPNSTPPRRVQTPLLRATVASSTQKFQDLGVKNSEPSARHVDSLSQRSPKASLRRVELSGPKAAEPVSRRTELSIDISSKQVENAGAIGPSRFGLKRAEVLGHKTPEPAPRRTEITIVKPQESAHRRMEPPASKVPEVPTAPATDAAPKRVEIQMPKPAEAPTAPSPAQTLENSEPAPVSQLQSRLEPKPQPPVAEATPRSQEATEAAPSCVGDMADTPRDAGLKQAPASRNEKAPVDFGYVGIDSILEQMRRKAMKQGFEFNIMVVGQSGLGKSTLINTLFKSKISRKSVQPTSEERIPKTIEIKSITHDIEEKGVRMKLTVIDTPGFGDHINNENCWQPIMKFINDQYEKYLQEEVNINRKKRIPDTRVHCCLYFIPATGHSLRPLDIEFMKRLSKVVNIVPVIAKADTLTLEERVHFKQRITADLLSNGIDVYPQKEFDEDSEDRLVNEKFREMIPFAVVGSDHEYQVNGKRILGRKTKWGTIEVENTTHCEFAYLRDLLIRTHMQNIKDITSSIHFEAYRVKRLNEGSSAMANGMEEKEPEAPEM

[4] = target: Survival of motor neuron protein interacting protein 1, transcript variant alpha (human) (UniProt O14893)

- binding [1]: binds
- binding [2]: binds
- binding [3]: binds
- binding (Janus kinase 2 (human)): binds
- binding (Janus kinase 3 (human)): binds
- binding (Phosducin-like (human)): binds
- binding (Septin 9 (human)): binds
Substance: NEMO (NF-κB essential modulator), tag-free, biotinylated (from UniProt Q9Y6K9 1-419)
- binding [4]: binds
